Laboratory results from US20220389120A1 (published 2022).

T1: recombinant human Ang2 (Biolegend) (human, UniProt O15123 19-496)
T1 chain: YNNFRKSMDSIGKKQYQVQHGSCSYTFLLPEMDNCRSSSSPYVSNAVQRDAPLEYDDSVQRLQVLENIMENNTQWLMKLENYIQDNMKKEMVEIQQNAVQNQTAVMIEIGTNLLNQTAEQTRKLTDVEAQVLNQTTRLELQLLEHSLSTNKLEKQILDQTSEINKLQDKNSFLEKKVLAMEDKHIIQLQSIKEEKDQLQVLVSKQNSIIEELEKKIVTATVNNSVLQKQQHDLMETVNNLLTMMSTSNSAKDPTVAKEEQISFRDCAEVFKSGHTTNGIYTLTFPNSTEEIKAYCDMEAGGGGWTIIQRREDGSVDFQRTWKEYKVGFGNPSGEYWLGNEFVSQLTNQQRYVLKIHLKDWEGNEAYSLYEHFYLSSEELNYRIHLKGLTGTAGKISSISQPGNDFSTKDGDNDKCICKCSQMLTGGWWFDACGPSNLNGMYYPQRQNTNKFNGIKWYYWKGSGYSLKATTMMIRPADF

B1: ZA2-d (Fc fusion)
chain: SDTGRPFVEMYSEIPEIIHMTEGRELVIPCRVTSPNITVTLKKFPLDTLIPDGKRIIWDSRKGFIISNATYKEIGLLTCEATVNGHLYKTNYLTHRQTNTIIDVVLSPSHGIELSVGEKLVLNCTARTELNVGIDFNWEYPSSKHQHKKLVNRDLKTQSGSEMKKFLSTLTIDGVTRSDQGLYTCAASSGLMTKKNSTFVRVHEK[sequence of human IgG4 Fc with S228P (EU numbers) omitted]GGGGGAQTNFMPMDDLEQRLYEQFILQQGGGGSGGGGSGGGGSGGGGSTNFMPMDDLEQRLYEQFILQQGLE
B2: ZA2-s (protein)
chain: SDTGRPFVEMYSEIPEIIHMTEGRELVIPCRVTSPNITVTLKKFPLDTLIPDGKRIIWDSRKGFIISNATYKEIGLLTCEATVNGHLYKTNYLTHRQTNTIIDVVLSPSHGIELSVGEKLVLNCTARTELNVGIDFNWEYPSSKHQHKKLVNRDLKTQSGSEMKKFLSTLTIDGVTRSDQGLYTCAASSGLMTKKNSTFVRVHEK[sequence of human IgG4 Fc with S228P (EU numbers) omitted]GGGGGAQTNFMPMDDLEQRLYEQFILQQGLE

Legend:
[1] = target: T1, recombinant human Ang2 (Biolegend); test: Ang2-Tie2 blocking ELISA; Test 3
[2] = target: T1, recombinant human Ang2 (Biolegend); test: Ang2-Tie2 blocking ELISA; Test 1
[3] = target: T1, recombinant human Ang2 (Biolegend); test: Ang2-Tie2 blocking ELISA; Test 2

| Binder | IC50 [1] [nM] | IC50 [2] [nM] | IC50 [3] [nM] |
| --- | --- | --- | --- |
| B1 | 0.04 | 0.19 |  |
| B2 |  | 0.64 | 0.71 |
